Test results: PubChem BioAssay AID624417 (National Center for Advancing Translational Sciences (NCATS), 2012)
The campaign covered roughly 410,000 compounds. About 6,400 (1.6%) were called active. The shares of active, inactive and inconclusive entries below differ from those in the screen. Calls follow the shape of the dose curve; as a rule, active = well fitted inhibition curve with a large enough effect; inconclusive = small, poorly fitted or top-dose-only effect; inactive = no such curve, though single readings can be large or run the other way. Potencies of inconclusive entries are left out as doubtful fits.

Each molecule was assayed against Glucagon-like peptide 1 receptor (Homo sapiens) (UniProt P43220) (assay: qHTS of GLP-1 Receptor Inverse Agonists (Inhibition Mode)). Settings: HEK293 GLP-1R CRE-luciferase, luminescence, 24 h, GLP-1R form is constitutively active; activity change, negative = inhibition: at 38.3 µM (top of the series) unless noted.
Method in brief: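 Using stably transfected HEK293 (constitutively active GLP-1R, cAMP-luciferase reporter), compounds were incubated 24 hr and luciferase measured by luminescence.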
% is scaled to controls: 0 for no effect and ±100 for the full control effect; potency is read from the fitted curve at half-maximal effect; tags tell the direction and shape of the fitted curve.
Also: nearly all actives have a fitted effect of over 55% in size.

UniProt P43220, sequence (P43220 whole entry, looked up): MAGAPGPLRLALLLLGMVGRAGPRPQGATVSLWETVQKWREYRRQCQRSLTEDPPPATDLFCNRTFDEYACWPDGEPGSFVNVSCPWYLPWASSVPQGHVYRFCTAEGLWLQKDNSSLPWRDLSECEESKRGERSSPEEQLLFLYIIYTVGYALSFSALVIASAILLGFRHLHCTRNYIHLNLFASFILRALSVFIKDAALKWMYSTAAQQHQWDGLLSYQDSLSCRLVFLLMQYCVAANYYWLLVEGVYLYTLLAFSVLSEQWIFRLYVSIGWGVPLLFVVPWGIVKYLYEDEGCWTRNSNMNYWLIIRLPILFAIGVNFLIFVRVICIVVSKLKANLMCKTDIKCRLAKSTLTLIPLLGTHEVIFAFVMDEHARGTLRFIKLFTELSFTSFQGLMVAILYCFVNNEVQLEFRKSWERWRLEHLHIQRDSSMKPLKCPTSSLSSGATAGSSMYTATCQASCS

SMILES	Potency	activity change, negative = inhibition
Cc1ccc(C)n1-c1nc(=S)[nH][nH]1	inactive	
Cc1ccc(-c2nn(-c3cc(Cl)ccc3[N+](=O)[O-])c(=O)c3ccccc23)cc1	inconclusive [inhibitor, single point]	
Cc1c(NC2=CC(=O)CCC2)c(=O)n(-c2ccccc2)n1C	inactive	
OC(c1cc(-c2cccc(Cl)c2)nc2ccccc12)C1CCCCN1 (stereo unspecified)	active: 1.41 µM	
COc1cc(CN2CCCC(C(=O)N3CCc4ccccc4C3)C2)cc(OC)c1OC (stereo unspecified)	inconclusive [inhibitor, partial curve, poor fit]	
Cc1ccc(NC(=O)CN(C)C2CCCCC2)cc1Cl	inconclusive [inhibitor, partial curve, poor fit]	
O=C(Nc1cnn(Cc2ccc(F)cc2)c1)c1cnccn1	inactive	
CN(C(=O)c1nn(C)c2c1CSc1ccccc1-2)c1ccc(F)cc1	inconclusive [inhibitor, partial curve, poor fit]	
Cc1cc(C)cc(-n2c(SCC(=O)N3CCCCCC3)nc3c([nH]c4ccccc43)c2=O)c1	inactive	
CC1CCCC(C)N1/N=C/C=C/c1ccccc1[N+](=O)[O-] (stereo unspecified)	inconclusive [inhibitor, partial curve, poor fit]	
CC(C)c1ccc(NC(=O)c2cc(-c3cc(F)ccc3OCC3CCCO3)n[nH]2)cc1 (stereo unspecified)	inconclusive [inhibitor, single point]	
Cc1[nH]c2ccccc2c1C(=O)CN1CCN(c2ccc(Cl)cc2)CC1	inconclusive [inhibitor, partial curve, poor fit]	
Cc1cccc(/C=N/NC(=O)NC2CCCCC2)c1	inconclusive [inhibitor, partial curve, poor fit]	
CCN(CC)CCOc1c(Br)ccc2c1sc1nc3n(c(=O)c12)CCC3	inconclusive [inhibitor, single point]	
COc1cccc(-c2nn(-c3ccccc3)cc2CN(C)Cc2c(C)nc3ccccn23)c1	inconclusive [inhibitor, single point]	
COc1ccc(Br)cc1/C=C/C(=O)c1ccc(NC(C)=O)cc1	active: 5.01 µM	
CCc1cccc(OCCN2CCCC2)c1	inactive	
C/C(CC(=O)Nc1ccc2c(c1)OCO2)=N\NC(=O)C(c1ccccc1)c1ccccc1	inconclusive [inhibitor, single point]	
Cc1ccc(Nc2c(-c3ccc(C)o3)nc3cccc(C)n23)cc1	inconclusive [inhibitor, single point]	
CCOc1ccccc1N1CCN(S(=O)(=O)c2ccc(Cl)s2)CC1	inconclusive [inhibitor, single point]	
O=C(N/N=C/c1cn(-c2cccs2)nc1-c1ccccc1)c1ccc(O)cc1	inconclusive [inhibitor, single point]	
COc1ccccc1CNC(=O)CC1Sc2ccccc2NC1=O (stereo unspecified)	inactive	

SMILES	Potency	activity change, negative = inhibition
COC(=O)C1=CN(c2ccc(OC)cc2OC)C(N)=C(C#N)C1c1ccccc1F (stereo unspecified)	inconclusive [inhibitor, full curve, poor fit]	
Cc1cc(/C=N/NC(=O)c2c(Br)cnn2C)c(C)n1-c1cccc(Br)c1	inconclusive [inhibitor, partial curve, poor fit]	
COc1nc(-c2ccccc2)nc(-c2ccccc2)c1C		inconclusive: -31.1% [inhibitor]
CCOC(=O)[C@@H]1[C@H]2COc3cc(OC)ccc3[C@H]2N2C(=O)N(c3ccc(C(F)(F)F)cc3)C(=O)[C@]12C	inconclusive [inhibitor, partial curve]	
COc1ccccc1N1CCN(C(=O)CCNS(=O)(=O)c2ccc(Br)s2)CC1	inconclusive [inhibitor, partial curve, poor fit]	
CC(C)(C)c1csc(NC(=O)CSC2=NCCS2)n1	inconclusive [inhibitor, single point]	
Cc1ccc(C(OC(=O)c2ccco2)C(=O)NC2CCCCC2)cc1 (stereo unspecified)	inconclusive [inhibitor, single point]	
O=c1[nH]c(=S)[nH]c2c1C(c1ccc(Cl)cc1)OC(C1CCCCC1)C2 (stereo unspecified)	inconclusive [inhibitor, single point]	
Cc1nn(C(C)c2nc(-c3ccccc3)no2)c(C)c1[N+](=O)[O-] (stereo unspecified)	inconclusive [inhibitor, single point]	
Cc1nn(-c2ccc(F)cc2)c(Cl)c1/C=C1\C(=O)Nc2ccccc21	inconclusive [inhibitor, partial curve, poor fit]	
COc1cccc2sc(Nc3nc(-c4ccncc4)cs3)nc12	inconclusive [inhibitor, partial curve, poor fit]	
CCN(CC)CCNc1ccc(Cl)cc1[N+](=O)[O-]	inconclusive [inhibitor, partial curve, poor fit]	
CC(=O)c1ccc(S(=O)(=O)N2CCC(NC(=O)Nc3cccc(F)c3)CC2)cc1	inconclusive [inhibitor, single point]	
CSc1ccc(/C=N/NC(=O)c2ccc(C)c(C)c2)cc1	inconclusive [inhibitor, full curve, poor fit]	
COc1ccc(CCNC(=O)CN(CCc2ccccc2)S(C)(=O)=O)cc1OC		inactive: -1.68% [at 7.66 µM]
N/N=c1\sc2ccccc2n1-c1ccccc1	inconclusive [inhibitor, single point]	
COc1ccc(Cn2c(SCc3ccc(C)cc3)nc3cc(OC)c(OC)cc3c2=N)cc1Cl	inactive	
Cc1cc(-c2ccc(C)c(S(=O)(=O)NCc3cccs3)c2)on1	inconclusive [inhibitor, full curve, poor fit]	
CC(C)CCSc1nc(N)c(C#N)cc1C#N	inactive	
Cc1cc(C)cc(N/C(N)=N/c2nc(C)cc(C)n2)c1	inconclusive [inhibitor, partial curve]	
COc1cccc2c1C1COC3C4CC(C(=O)O)C(C(C2)N13)N4C (stereo unspecified)	active: 3.98 µM	
CCOC(=O)c1c(C)[nH]c(C)c1S(=O)(=O)N1CCC(C(=O)Nc2ccc(C)c(N(C)C)c2)CC1	inactive	

SMILES	Potency	activity change, negative = inhibition
CC(=O)N(CCCN(C)C)c1nc2ccc(C)cc2s1	inconclusive [inhibitor, partial curve, poor fit]	
S=C(c1ccc(Br)cc1)N1CCCC1	inactive	
CS/C(N)=N/N=C/c1ccc([N+](=O)[O-])cc1	inactive	
Cc1ccc(NC(=O)C2CCN(C(=O)NCc3ccccc3)CC2)cc1C	inconclusive [inhibitor, single point]	
Cc1ccc2cccc(OC(=O)/C=C\c3ccccc3)c2n1	inconclusive [inhibitor, single point]	
O=C(CN1CCc2ccccc2C1)Nc1ccc(F)cc1	inactive	
C=C(C)COc1ccc(-c2n[nH]c(C)c2-c2ccccc2)c(O)c1	inconclusive [inhibitor, partial curve, poor fit]	
COc1cccc(/C=C/c2nc(C#N)c(NCC(C)C)o2)c1	inconclusive [inhibitor, partial curve]	
COc1cccc(CN2CCN(Cc3[nH]c4ccccc4c3C)CC2CCO)c1 (stereo unspecified)	inconclusive [inhibitor, partial curve, poor fit]	
O=C(Nc1cccc(Cl)c1)Nc1ccc2nccnc2c1	inconclusive [inhibitor, single point]	
Cc1oc2cc(O)ccc2c(=O)c1Oc1ccccc1Br	inconclusive [inhibitor, single point]	
COc1ccc(S(=O)(=O)N(C)C[C@@H]2Oc3cc(Br)ccc3S(=O)(=O)N([C@H](C)CO)C[C@@H]2C)cc1	inconclusive [inhibitor, single point]	
Cc1ccc(C(=O)NCc2ccccc2)cc1NC(=O)c1nsc2ccccc12	inconclusive [inhibitor, partial curve, poor fit]	
CC(C)(C)c1cccc(P(=O)(c2ccccc2)c2ccccc2)c1O	inconclusive [inhibitor, single point]	
Cc1ccc(NC2CCCN(C(=O)c3cc(C(C)C)nn3C)C2)cc1C (stereo unspecified)	inconclusive [inhibitor, single point]	
CN(C)CC1CCCCC1OC(=O)c1ccc(Br)cc1 (stereo unspecified)	inconclusive [inhibitor, partial curve, poor fit]	
CCOC(=O)N1CCN(C(=O)c2ccccc2NC(=O)c2ccc(C(C)(C)C)cc2)CC1	inconclusive [inhibitor, single point]	
O=C(CN1CCN(c2cccc(C(F)(F)F)c2)CC1)Nc1ccc2c(c1)OCCCO2	inconclusive [inhibitor, partial curve, poor fit]	
CC(C)(C)OC(=O)N1CCC[C@H]1c1nnc(SCc2ccccc2F)o1	inconclusive [inhibitor, partial curve, poor fit]	
O=C(Nc1nccs1)c1ccc(COc2ccccc2)o1	inactive	
CCc1ccc(OCC(=O)Nc2cc(-c3nc4cc(C)ccc4o3)ccc2C)cc1	inactive	
O=C(CCl)Nc1cc(S(=O)(=O)N2CCCCCC2)ccc1Cl	inconclusive [inhibitor, single point]	
